The whole screen tested about 45,000 compounds, of which about 65 (0.1%) were called active. Calls come from the whole dose curve; as a rule, active = well fitted activation curve with a large enough effect; inconclusive = small, poorly fitted or top-dose-only effect; inactive = no such curve, though single readings can be large or run the other way. The list shows a part of the results.
biological target: Galactocerebrosidase (Homo sapiens) (UniProt P54803); assay: A Novel Cell-Based Assay to Identify Small Molecules for B -Galactocerebrosidase; conditions: 145M-Twi-hGALC-G270D cells (Twitcher mouse brain line with human GALC G270D), HMU-beta-Gal fluorescence, 48 h; series mostly up to 57.5 µM; activation: at the top concentration; note: 0% is about no effect; nearly all actives have a fitted effect of over 65% in size
UniProt P54803, sequence (P54803 whole entry, looked up): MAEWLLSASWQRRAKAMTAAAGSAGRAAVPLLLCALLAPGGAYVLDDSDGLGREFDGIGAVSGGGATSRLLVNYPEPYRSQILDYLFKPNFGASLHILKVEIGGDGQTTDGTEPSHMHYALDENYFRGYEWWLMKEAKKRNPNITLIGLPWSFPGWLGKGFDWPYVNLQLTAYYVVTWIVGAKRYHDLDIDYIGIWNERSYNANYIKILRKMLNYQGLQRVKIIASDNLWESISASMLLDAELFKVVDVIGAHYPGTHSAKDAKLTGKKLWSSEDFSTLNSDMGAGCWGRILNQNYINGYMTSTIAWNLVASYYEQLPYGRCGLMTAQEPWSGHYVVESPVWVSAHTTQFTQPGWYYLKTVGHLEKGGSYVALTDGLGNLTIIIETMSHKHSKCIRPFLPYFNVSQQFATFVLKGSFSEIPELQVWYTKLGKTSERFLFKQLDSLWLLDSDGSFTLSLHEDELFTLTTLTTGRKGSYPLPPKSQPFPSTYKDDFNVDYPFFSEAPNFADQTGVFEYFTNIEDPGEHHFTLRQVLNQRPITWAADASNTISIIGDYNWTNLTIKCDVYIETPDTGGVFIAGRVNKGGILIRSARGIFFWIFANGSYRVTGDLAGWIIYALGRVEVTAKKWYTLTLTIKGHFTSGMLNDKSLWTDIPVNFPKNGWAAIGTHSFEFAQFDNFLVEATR
Summary of the method: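 Brain-derived Twitcher mouse 145M-Twi cells stably expressing human GALC-G270D or wild-type GALC, treated live, then residual GALC activity read by fluorescence of HMU-b-Gal substrate (0.1 mM final) in citrate-phosphate buffer pH 5.2 with sodium taurocholate. Signal increase indicates enhancement.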

activation, inactive:
Nc1ccc2oc(-c3ccccc3Br)nc2c1 -14.7%, Cc1ccc(-n2nc(C)c3c(C)cc(=O)n(CC(=O)Nc4cc(Cl)ccc4C)c32)cc1 -19.6%, Cc1cccn2c(=O)cc(COc3ccc(NC(=O)C(C)C)cc3)nc12 -11.5%, CCOC(=O)c1oc2ccc(S(=O)(=O)n3nc(-c4ccc(Br)cc4)cc3N)cc2c1C -16.1%, COc1ccc(CNC(=O)c2c3c(nc4ccccc24)C(=O)N(C2CCCCC2)C3)cc1 -10.2%, COC(=O)c1ccc(CSc2nc3c([nH]c4ccccc43)c(=O)n2-c2ccc(OC)cc2)o1 -1.99%, COc1cccc(CNC(=O)c2nn(-c3ccc(C)cc3)c(=O)c3c2c2ccccc2n3C)c1 -7.57%, O=C(Cc1ccccc1)NCCc1csc2nc(-c3ccc(Cl)cc3)nn12 -11.2%, COc1ccc(Nc2nc(N)c3cc(OC)c(OC)cc3n2)cc1 -24.4%, Brc1c(NC2=NCCN2)ccc2nccnc12 -5.35%, CCOC(=O)c1scc(-c2ccccc2)c1S(=O)(=O)Nc1cc(Cl)c(OC)cc1OC -3.95%, CC1CCc2c(sc(NC(=O)C3c4ccccc4Oc4ccccc43)c2C(=O)OC(C)C)C1 (configuration not stated) -6.09%, Cc1ccc(S(=O)(=O)NCc2nc(-c3cccc(C)c3)no2)cc1 -32%, COc1ccc(C2CC(=O)N(Cc3cccc(F)c3)c3ccccc3S2)cc1 (configuration not stated) -33.2%, COc1ccccc1Nc1nn2c(=O)c3ccc(C(=O)N4CCCC(C)C4)cc3nc2s1 (configuration not stated) -6.48%, Cc1ccc(-n2nc(C)c3c(C(=O)NCc4ccccc4)cc(C4CC4)nc32)cc1 -12.5%, COc1ccccc1CNS(=O)(=O)c1ccc2c(c1)NC(=O)CC(=O)N2 -13.4%, CN(C)CCOC(=O)COc1ccc(Cl)cc1 -13.1%, COc1ccc(C(=O)Nc2nnc(S(=O)(=O)N(CC(C)C)c3ccc(C)cc3)s2)cc1OC -14.5%, O=C(CSc1nc(=O)n(CCN2CCOCC2)c2c1CCC2)Nc1ccccc1 -7.78%, COCCCNC(=O)c1ccc2c(c1)N(Cc1ccccc1)C(=O)c1ccccc1S2 -29.8%, COc1ccccc1CNC(=O)CCCn1c(=O)c2ccccc2n(CC(=O)Nc2c(C)cc(C)cc2C)c1=O -15.2%, CCn1cc(C(=O)NCc2ccccc2Cl)c(=O)c2cc(S(=O)(=O)N3CCc4ccccc4C3)ccc21 -11.7%, CCOC(=O)c1cccnc1 -12.5%, CCOC(=O)c1sc(NC(=O)C2c3ccccc3Oc3ccccc32)c(C(=O)OCC)c1C -6.43%, COc1ccc(NC(=O)CSc2nnc(NC(=O)Nc3ccccc3)s2)cc1OC -7.35%, Cc1ccccc1Nc1nc(-c2cccc(Cl)c2)c2c(n1)-c1ccccc1OC2 -7.06%, CC(NC(=O)Cn1c(=O)oc2cc(S(=O)(=O)NCc3ccccc3)ccc21)c1ccccc1 (configuration not stated) -23.1%, CC(=O)c1ccc(NC(=O)COc2ccccc2-c2nc(-c3cccc(C)c3)no2)cc1 -14%, O=C(Nc1cc(C(F)(F)F)ccc1Cl)c1cc(-c2ccc3c(c2)OCCO3)on1 -11%, COC(=O)c1cccnc1-n1c(=O)c2cccnc2n(CC(=O)Nc2ccc(C)cc2C)c1=O 8.46%, Cc1ccc2c(c1)N(C(=O)CCC(=O)NCc1ccccc1Cl)CC(C)O2 (configuration not stated) -12.9%, O=C(Nc1ccc(S(=O)(=O)Nc2ncccn2)cc1)c1ccccc1Cl -19%, Cn1c(=O)c2c(ncn2CC(=O)Nc2cccc(Cl)c2Cl)n(C)c1=O -8.59%, Cc1cccc(NC(=O)Nc2nnc(N(C)Cc3ccccc3)s2)c1 -1.92%, CC(=O)c1ccc(NC(=O)c2sc(-n3nc(C)c(Cc4ccccc4)c3C)nc2C)cc1 -17%, CCOCCCNc1ncnc2onc(C)c12 -25.2%, Cc1ccc(Cl)cc1N1CCN(S(=O)(=O)c2ccc3c(c2)CC(C)N3C(=O)C2CCC2)CC1 (configuration not stated) -12.7%, COc1ccc(-c2nn3c(-c4ccccc4C)nnc3c3ccccc23)cc1 -15.2%, CN(C(=O)Cn1cc(S(=O)(=O)Cc2ccccc2Cl)c2ccccc21)c1ccccc1 -10.9%, CCN(Cc1ccccc1)Cc1c(O)ccc2c(=O)c(-c3ccc(Cl)cc3Cl)coc12 12.2%, Cc1noc(/C=C/c2cccs2)c1S(=O)(=O)N1CCC(C(=O)NCc2ccccc2Cl)CC1 2.31%, Cc1ccccc1C(=O)NC1(C(F)(F)F)C(=O)Nc2c1c(=O)[nH]c(=O)n2-c1ccc(F)cc1 (configuration not stated) -7.97%, COc1cccc(Cn2c(CNC(=O)c3cc([N+](=O)[O-])ccc3Cl)nc3cccnc32)c1 6.12%, CCCc1cnc2c(c1SCC(=O)Nc1ccc(C)c(Cl)c1)c(=O)n(C)c(=O)n2C -6.58%, COc1cc(/C=C(\C#N)c2nc3ccccc3[nH]2)ccc1OCc1cccc(C(F)(F)F)c1 7.82%, CCOc1ccccc1NC(=O)c1ccc(F)c(S(=O)(=O)NCc2ccc3c(c2)OCO3)c1 -18.1%, CCCCNC(=O)CCCn1c(=O)c2ccccc2n(CC(=O)Nc2ccccc2OCC)c1=O -8.73%, COc1ccc(CNc2ncnc3onc(-c4ccc(F)cc4)c23)cc1 -26.2%, CCOc1ccccc1NC(=O)N1CCc2c(sc(C)c2CC)C1c1ccccc1 (configuration not stated) -12.5%, CC(Oc1ccccc1)C(=O)Nc1nnc2n1CCS2 (configuration not stated) -14.7%, CCOc1ccccc1NC(=O)Cn1c(=O)ccc2cc(S(=O)(=O)N3CCCC3)ccc21 -6.62%, CC(=O)N1CCc2nc3sc(C(=O)Nc4ccc(Cl)cc4F)c(N)c3c(C(F)(F)F)c2C1 -7.83%, COC(=O)c1cccc(-n2c(CCC(=O)O)ccc2-c2cccs2)c1 3.08%, COc1ccc(C(=O)Nc2ccc(-c3nnc4n3CCCCC4)cc2)cc1OC -11.7%, O=C(c1cc2ccc3cccnc3c2[nH]1)N1CCN(c2ccccc2)CC1 -12.5%, COc1ccc(Cn2c(C(=O)O)c(CNCc3ccc(C)o3)c3ccc(C)cc32)cc1 9.79%, COc1cc(-c2nc3nc(C)cc(C)n3c2Nc2ccc(Cl)cc2)ccc1O -0.923%, CCc1ccccc1N1CC(c2nc3ccccc3n2CCCCOc2ccccc2)CC1=O (configuration not stated) -15.2%, O=C(NC1CCCC1)c1ccc(CSc2nc3cccnc3n2Cc2ccc(F)cc2)cc1 -9.38%, CC(C)c1nc2ccc(C(=O)NC(C)c3ccccc3)cc2o1 (configuration not stated) 8.84%, CCOC(=O)c1ccc2ncc3c(-c4ccccc4)nn(-c4ccc(F)c(Cl)c4)c3c2c1 -1.04%

Reference: PubChem BioAssay AID1159614 (National Center for Advancing Translational Sciences (NCATS), 2016)
